Data reported in the RNAGym collection of RNA variant scans (doi:10.1093/nar/gkz1192).
The source gives no read counts; variants with many changes may rest on few reads.

B1: CPEB3 Ribozyme (parent)
chain: UAACAGGGGGCCACAGCAGAAGCGUUCACGUCGCAGCCCCUGUCAGAUUCUGGUGAAUCUGCGAAUUCUGCUGUAUAUCUC

Variants of: B1
Assay: self-cleavage, relative activity (ratio to wild type); higher = more cleavage; in vitro, sequencing
Summary of the method: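 Relative activity compares each variant's cleaved/total read fraction with that of the unmutated ribozyme. To get these fractions, barcoded CPEB3 ribozyme libraries from rounds of error-prone PCR were transcribed with T7 RNA polymerase for 5 hours at 37°C and then given 15 min of DNase I treatment before EDTA was added. The RNAs were reverse transcribed with template switching and sequenced on Illumina, and DNA sequencing linked barcodes to variants. A minimum of 5 reads applied, and three batches were averaged.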
With UAACAGGGGGCCACAGCAGAAGCGUUCACGUCGCAGCCCCAGUCAGAUUAUGGUGAAUCUGCGAAUUCUGCAGUAUAUCUC the self-cleavage was 0.1. For UAACAGGGGGCCACAGCAGAAGCGUUCACGUCGCAGCCCCAGUCAGAUUCUGGUGAAUUUGCGAAUUCUGACGUAUAUCUC, the self-cleavage was 0.08. UAACAGGGGGCCACAGCAGAAGCGUUCACGUCGCAGCCCCAUUCAGGUUCUGGUGAAUCUGCGAAUUCUGCUGUAUAUCUC gave a self-cleavage of 0.24. In the case of UAACAGGGGGCCACAGCAGAAGCGUUCACGUCGCAGCCCCAGUCGGAUACCGGUGAGUCUGCGAUUUCUGCUGUAUAUCUC, the self-cleavage is reported as 0.17. Work on UAACAGGGGGCCACAGCAGAAGCGUUCACGUCGCAGCCCCAGUCAGAUUCUGGUGCUUCUGCGAAAUCUGCUGUAUAUCUC yielded a self-cleavage of 0.08. UAACAGGGGGCCACAGCAGAAGCGUUCACGUCGCAGCCCCAGUCAGGUUCUGGUGAAUCUGCGAAUUCUGCUGGAUAACUC showed a self-cleavage of 0.1. For UAACAGGGGGCCACAGCAGAAGCGUUCACGUCGCAGCCCCAGUCAGAUUCUGGUGGAUCCGCGAAUUCUGCUGUAUAUCUC, the self-cleavage was 0.06. UAACAGGGGGCCACAGCAGAAGCGUUCACGUCGCAGCCCCAGUCAGAUUCUGGUGAAUCUGCGGUUUCUGCUGCAUAUCUC showed a self-cleavage of 0.05. Work on UAACAGGGGGCCACAGCAGAAGCGUUCACGUCGCAGCCCCAGUCGGAUUCUGGUGAAUCAGCGAAUUCUGCGGUAUAUCUC yielded a self-cleavage of 0.25. UAACAGGGGGCCACAGCAGAAGCGUUCACGUCGCAGCCCCAGUCAGGUUCUGGAGAAUCUGCGAAUUCUGCUGUAUAUCUC showed a self-cleavage of 0.25. UAACAGGGGGCCACAGCAGAAGCGUUCACGUCGCAGCCCCAGUCAGAUUCUGGUGUAUCUGCGAAUUCUGCAGUAUAUCUC gave a self-cleavage of 0.13. For UAACAGGGGGCCACAGCAGAAGCGUUCACGUCGCAGCCCCAGUCAGAUUUUGAUGAACCUGCGUAUUCUCCUGUAUAUCAC, the self-cleavage was 0.09. For UAACAGGGGGCCACAGCAGAAGCGUUCACGUCGCAGCCCCAGUCAGAUUCUGGUGAUGCUGCGAAUUCCGCUGUAUAUCCC, the self-cleavage was 0.1. Work on UAACAGGGGGCCACAGCAGAAGCGUUCACGUCGCAGCCCCAGUCACAUUCUGCCGAAUCUGCGAAUUCUGCUGUACAUCUC yielded a self-cleavage of 0.11. In the case of UAACAGGGGGCCACAGCAGAAGCGUUCACGUCGCAGCCCCAGUCAGAUUCUGGUGAAUCUGCGAGUUCUGCUGUGUAUCUC, the self-cleavage is reported as 0.09. UAACAGGGGGCCACAGCAGAAGCGUUCACGUCGCAGCCCCAGUCAGAUUCUGGUGAAUCUGCGGGUUCUGCUGUAUAUCUC gave a self-cleavage of 0.16. UAACAGGGGGCCACAGCAGAAGCGUUCACGUCGCAGCCCCAGUCGGAUUCUGGUGAAUCCGCGAAUUCUGCCGUUUAUCUC gave a self-cleavage of 0.36. In the case of UAACAGGGGGCCACAGCAGAAGCGUUCACGUCGCAGCCCCAGUCAGAUUCUGGUGAAUCUGCGAGUUCUGCCGUAUAUCUC, the self-cleavage is reported as 0.16. With UAACAGGGGGCCACAGCAGAAGCGUUCACGUCGCAGCCCCAGUCAGCUUCUGGUGAAUCUGCGAAUUCUGCUUUAUAUCUC the self-cleavage was 0.37. With UAACAGGGGGCCACAGCAGAAGCGUUCACGUCGCAGCCCCAGUGAGAUUAUGGUGAACCAGCGAAUUCUGCUGUAUAUCUC the self-cleavage was 0.14. UAACAGGGGGCCACAGCAGAAGCGUUCACGUCGCAGCCCCAGUCAGGUUCUGGUGAAUCUGCGAAUUGUGCUAUAUAUAUC gave a self-cleavage of 0.23. Variant UAACAGGGGGCCACAGCAGAAGCGUUCACGUCGCAGCCCCAGUCGGAUUCAGGUGAAUCUGCGAAUUCUGCUGCAAAUCUC has a self-cleavage of 0.35. With UAACAGGGGGCCACAGCAGAAGCGUUCACGUCGCAGCCCCAGUCAGAUUCUGGUGAAUCUGUGAAUUCUGCUGCAUAUCUC the self-cleavage was 0.13. For UAACAGGGGGCCACAGCAGAAGCGUUCACGUCGCAGCCCCAGUCAGAUUCUGGUGUAUCUGCGAAUUCUGCUGUAUACCUC, the self-cleavage was 0.2. In the case of UAACAGGGGGCCACAGCAGAAGCGUUCACGUCGCAGCCCCAGUCAGAUUCUGAUGAAUCUGCGAAUUCUUCUGUAUAUCUC, the self-cleavage is reported as 0.14. UAACAGGGGGCCACAGCAGAAGCGUUCACGUCGCAGCCCCAGUCAGAUUCUGGUGUGUCUACGAAUUCUGCUGUACAUCCC showed a self-cleavage of 0.07. UAACAGGGGGCCACAGCAGAAGCGUUCACGUCGCAGCCCCAGUCAGAUUCUGGUGAAUCUGCGUAUUCUCCUGUAUAUCUC gave a self-cleavage of 0.16. In the case of UAACAGGGGGCCACAGCAGAAGCGUUCACGUCGCAGCCCCAGUCAGAUUCUGGUGAAUCUGCGAAUUAUGCUGUAUACCUC, the self-cleavage is reported as 0.34. In the case of UAACAGGGGGCCACAGCAGAAGCGUUCACGUCGCAGCCCCAGUCAGAUUCUGGUGAGUCCGCGAAUUCAGCUGUAUAUCCC, the self-cleavage is reported as 0.35. Work on UAACAGGGGGCCACAGCAGAAGCGUUCACGUCGCAGCCCCAGUCAGAUUCUGAUGGAUCUGCGAAAUCUGCUGUACAUCCC yielded a self-cleavage of 0.1. UAACAGGGGGCCACAGCAGAAGCGUUCACGUCGCAGCCCCAGUCAGUUUCUGGUGAAUCCGCGAAUGCUGCUGUAUAUCUC gave a self-cleavage of 0.14. With UAACAGGGGGCCACAGCAGAAGCGUUCACGUCGCAGCCCCAGUCAGAUUACGGUGAAUCUGCGAAUUCUGCUGUAUAUCUC the self-cleavage was 0.06. With UAACAGGGGGCCACAGCAGAAGCGUUCACGUCGCAGCCCCAGUGAGACUGUGGAGAACCAGCGAAUUCUGCUGUAUAUCUC the self-cleavage was 0.13. Work on UAACAGGGGGCCACAGCAGAAGCGUUCACGUCGCAGCCCCAGUCUGAUUCAGGUGAAUCUGCGAAUUCUGCUGUAUGUCUC yielded a self-cleavage of 0.1. Variant UAACAGGGGGCCACAGCAGAAGCGUUCACGUCGCAGCCCCAGUCAGAUUCUGGUGAAUCUGUGAAUUCUGCCGUAUAUCUC has a self-cleavage of 0.36. Variant UAACAGGGGGCCACAGCAGAAGCGUUCACGUCGCAGCCCCAGUCGGAUUCUGGUGAAUCUGCGAAUUCUGCGGUAUAUCUC has a self-cleavage of 0.12. With UAACAGGGGGCCACAGCAGAAGCGUUCACGUCGCAGCCCCAGUCAGAUUCUAGUGAAUCUGCGAAUUCUGCUGUUUAUCUC the self-cleavage was 0.56. UAACAGGGGGCCACAGCAGAAGCGUUCACGUCGCAGCCCCAUUCAGAUUCAGGUGAAUCUGCGAAUUCUGCUGUAUGUCUC showed a self-cleavage of 0.21. With UAACAGGGGGCCACAGCAGAAGCGUUCACGUCGCAGCCCCAGUCAGAUUCUGGUGAGUCUGCGAAUUCUGCAGUAUAUCUC the self-cleavage was 0.17. Work on UAACAGGGGGCCACAGCAGAAGCGUUCACGUCGCAGCCCCAGUCAGAUUCUGGUGGGUCUGCGAAUUCUGCUAUAUAUCUC yielded a self-cleavage of 0.36. Work on UAACAGGGGGCCACAGCAGAAGCGUUCACGUCGCAGCCCCAGUCAGAUUCUGGUGAAUCUGCGCAUUCUGCUGUAUUUCUC yielded a self-cleavage of 0.15. UAACAGGGGGCCACAGCAGAAGCGUUCACGUCGCAGCCCCAGUCUGACUCUGGUGUAUCUGCGAAUUCUGCUGUAUAUCUC showed a self-cleavage of 0.14. UAACAGGGGGCCACAGCAGAAGCGUUCACGUCGCAGCCCCAGUCGGAUUCUGGUGAAUCCGCGAAUUCUGCCGUAUAUCUC showed a self-cleavage of 0.35. With UAACAGGGGGCCACAGCAGAAGCGUUCACGUCGCAGCCCCAGUCAGAUUUUGGUGAAUCUGCGAAUUCUGCUGUGUAUCUC the self-cleavage was 0.13. UAACAGGGGGCCACAGCAGAAGCGUUCACGUCGCAGCCCCAGUCAGAUUCUGGUGAAUCUGCGGAUUCAGCUGUAUAUCUC gave a self-cleavage of 0.16. Variant UAACAGGGGGCCACAGCAGAAGCGUUCACGUCGCAGCCCCAGUCAGGUUCUGGGGAAUCUGCGAAUCCUGCUGUAUAUCUC has a self-cleavage of 0.11. UAACAGGGGGCCACAGCAGAAGCGUUCACGUCGCAGCCCCAGUCAGAUUCUGGUGAAUCUGCGUAUUCUGCUGCAUAUCUC gave a self-cleavage of 0.41. For UAACAGGGGGCCACAGCAGAAGCGUUCACGUCGCAGCCCCAGUCAGAUUCUGGUGAGCCUGCGAAUUCUGCUGUAUGUCUC, the self-cleavage was 0.15. Variant UAACAGGGGGCCACAGCAGAAGCGUUCACGUCGCAGCCCCAGUCAGGUUCUGGCGAAUCUGCGAAUUCUGCUGAAUAUACC has a self-cleavage of 0.24. In the case of UAACAGGGGGCCACAGCAGAAGCGUUCACGUCGCAGCCCCAGUCAGAUUCUGGUGAGUCCGCGAAUUCGGCUGUAUAUCUC, the self-cleavage is reported as 0.25. Work on UAACAGGGGGCCACAGCAGAAGCGUUCACGUCGCAGCCCCAGUCAGAUUCUUGUGAAUCUGCGAAUUCUGCCGUAUAUCUC yielded a self-cleavage of 0.31. For UAACAGGGGGCCACAGCAGAAGCGUUCACGUCGCAGCCCCAGUCGGAUUCUGGCGAAUCUGCGAAUUCUGCUGAAUAUCUC, the self-cleavage was 0.23. UAACAGGGGGCCACAGCAGAAGCGUUCACGUCGCAGCCCCAGUCAGAUUCUGGUGAAUGAGCUAAUUCUGCUGUAUAUCUC gave a self-cleavage of 0.06. UAACAGGGGGCCACAGCAGAAGCGUUCACGUCGCAGCCCCAGUCAGAUUCUGGUGGAUCUGCGAAUUCCGCUGUAUAACUC showed a self-cleavage of 0.06. Variant UAACAGGGGGCCACAGCAGAAGCGUUCACGUCGCAGCCCCAGUCAGAUUCUGGUGAGUCUGCGAAUUCUGCUGUAUUUCUC has a self-cleavage of 0.16. In the case of UAACAGGGGGCCACAGCAGAAGCGUUCACGUCGCAGCCCCAGUCAGAUUCUGGUGAGUCUGCGAAUUCUGCUGAAUAUCUC, the self-cleavage is reported as 0.81. With UAACAGGGGGCCACAGCAGAAGCGUUCACGUCGCAGCCCCAGUCAGCUUCUGGUGGAUCUGCGAAUUCUGCUGUAUAUCUC the self-cleavage was 0.13. Work on UAACAGGGGGCCACAGCAGAAGCGUUCACGUCGCAGCCCCAGUCAGAUUCUGGUGAAUCUGCGAAUUCUGCUGUAUUACUC yielded a self-cleavage of 0.21. For UAACAGGGGGCCACAGCAGAAGCGUUCACGUCGCAGCCCCAGUCAGAUUCUGGUGAGUCUGCGAAUUCUGCUGUAAAUCUC, the self-cleavage was 0.14. Variant UAACAGGGGGCCACAGCAGAAGCGUUCACGUCGCAGCCCCAGUCAGAUUCUGGUGAAUCUGCGGAUUCUGCUGUAUAUAUC has a self-cleavage of 0.15. Work on UAACAGGGGGCCACAGCAGAAGCGUUCACGUCGCAGCCCCAGUCUGAUUCUGGCGAACCAGCGAAUUCCGCUGUAUAUCUC yielded a self-cleavage of 0.05. For UAACAGGGGGCCACAGCAGAAGCGUUCACGUCGCAGCCCCAAUCAGAUUCUGGUGAGUCUGCGAAUUCUGCUGUAUAUCUC, the self-cleavage was 0.22. Variant UAACAGGGGGCCACAGCAGAAGCGUUCACGUCGCAGCCCCAGUCUGAUUCUGGUGAGUCUGCGAAUUCUGCUGUAUAUCUC has a self-cleavage of 0.21. With UAACAGGGGGCCACAGCAGAAGCGUUCACGUCGCAGCCCCAGUCGGAUUCUGGCGAAUCUGCGUAUUCUGCUGUAUAUCUG the self-cleavage was 0.03. In the case of UAACAGGGGGCCACAGCAGAAGCGUUCACGUCGCAGCCCCAGUCAGAUUCUGGUGAAUCUGCGAGUUCAGCUGUAUAUCUC, the self-cleavage is reported as 0.09. UAACAGGGGGCCACAGCAGAAGCGUUCACGUCGCAGCCCCAGUGAGAUUGUGGUGAACCAGCGAAUUCUGCUGUAUAUCUC showed a self-cleavage of 0.15. In the case of UAACAGGGGGCCACAGCAGAAGCGUUCACGUCGCAGCCCCAGUCGGAUACUGGCGAAUCUGCGAAUUCUGCUGCUUAUCUC, the self-cleavage is reported as 0.22. With UAACAGGGGGCCACAGCAGAAGCGUUCACGUCGCAGCCCCAGUCGGAUUCUGGAGAAUUUGCGAAUUCUGCUGUAUAUCUC the self-cleavage was 0.13.
